Measured values from PubChem BioAssay (NCATS).
The inconclusive results got no clear call from the source; some entries with a clear call stand among them for comparison. No potency is given beside an inconclusive call; the fits are too rough. “Side channel” marks fits to a control or component signal instead of the main read-out. Activity calls are given as the source filed them. Calls follow the shape of the dose curve; as a rule, active = well fitted inhibition curve with a large enough effect in the signal ratio, with a control signal flat (not every such curve was filed as active); inconclusive = small, poorly fitted or top-dose-only effect, or effect the other way, or a change in a side signal; inactive = flat fitted curve, though single readings scatter; the % refers to the signal ratio.

Assay: qHTS Assay for Identification of Small Molecule Antagonists for NFkB Signaling Pathway (AID 895)
Conditions: NFkB beta-lactamase reporter cells, FRET ratio 460/530, stimulated with 10 pM TNF alpha; activity change, negative = inhibition: at 38.3 µM (top of the series)
Description: NIH Molecular Libraries Screening Centers Network [MLSCN]
NIH Chemical Genomics Center [NCGC]
The TNF alpha/NFkB signaling pathway was assayed in NFkB-bla cells (Invitrogen), a ME-180 cervical carcinoma line containing a stably integrated beta-lactamase reporter gene controlled by a NFkB response element. […] The assay was screened at the EC50 of TNF alpha activation to identify inhibitors of TNF alpha/NFkB signaling.
NCGC Assay Protocol Summary:
Cells were trypsinized, washed in assay medium (AM, OPTI MEM with 0.5% fetal bovine serum, 0.1 mM nonessential amino acids, 1 mM sodium pyruvate, 10mM HEPES pH 7.3, 100U/ml penicillin, and 100 ug/ml streptomycin) and plated at 1000 cells/5 uL/well into black clear-bottom 1536 well plates. After an overnight incubation at 37 C and 5% CO2, 23 nL of compound were delivered by a pin tool, 1 uL of TNF alpha (10 pM final concentration in AM) was added and plates were incubated at 37 C for 5 hrs. One uL of LiveBLAzerTM detector mix (Invitrogen) was added, the plates incubated at room temperature for 2 hrs, and fluorescence intensity at 460 and 530 nm emission was measured at 405 nm excitation by an Envision (Perkin Elmer).
% is scaled to controls: 0 for no effect and ±100 for the full control effect; potency is read from the fitted curve at half-maximal effect; tags tell the direction and shape of the fitted curve or compound fluorescence and quenching.

SMILES	Potency	activity change, negative = inhibition
CCCCCCCCCC(=O)N[C@@H](CN1CCOCC1)[C@@H](O)c1ccccc1	inconclusive [inhibitor, full curve]	
FC(F)(F)c1cc(CO[C@@H]2CCCN[C@H]2c2ccccc2)cc(C(F)(F)F)c1	inactive	
CSc1nc(N)c2ncn([C@@H]3O[C@@H](COP(=O)(O)OP(=O)(O)O)[C@@H](O)[C@H]3O)c2n1	inactive	
Nc1ncnc2c1nc(Br)n2[C@@H]1O[C@H]2COP(=O)(O)O[C@@H]2[C@H]1O	inactive	
CO/N=C(\C(=O)N[C@@H]1C(=O)N2C(C(=O)O)=C(COC(C)=O)CS[C@@H]12)c1csc(N)n1	inactive	
CC#CCOC(=O)c1c(C)nc2sc3c(c2c1N)CC[C@@H](O)C3	inconclusive [activator, single point]	
c1ccc([C@@H]2CN3CCSC3=N2)cc1	inconclusive [activator, full curve, poor fit]	inconclusive: -15.5%
CCCCN1CCC(COC(=O)c2cc(Cl)c(N)c3c2OCCO3)CC1		inconclusive: -7.02%
O=S(=O)(NCCNC/C=C\c1ccc(Br)cc1)c1cccc2cnccc12	inconclusive [inhibitor, single point]	
O[C@H](CN1CCN(c2cccc(Cl)c2)CC1)C(c1ccccc1)c1ccccc1		inconclusive: -5.25%
Nc1ncnc2c1ncn2[C@@H]1O[C@@H](COP(=O)(O)OP(=O)(O)OP(=O)(O)OP(=O)(O)OC[C@@H]2O[C@@H](n3cnc4c(N)ncnc43)[C@@H](O)[C@H]2O)[C@H](O)[C@@H]1O	inconclusive [inhibitor, single point]	
CC(=O)[C@@]1(O)CC[C@@H]2[C@@H]3CCC4=CC(=O)CC[C@@]4(C)[C@H]3CC[C@]21C		inconclusive: -6.8%
Cc1cc(C)c(/C=C2/C(=O)Nc3ccccc32)[nH]1	inconclusive [side channel, rising, single point]	
NC[C@](O)(CS(=O)(=O)O)c1ccc(Cl)cc1		inconclusive: -1.46%
Oc1cc(O)cc(/C=C\c2ccc(O)c(O)c2)c1		inconclusive: -23.8%
CCN(CC)CC#CCOC(=O)[C@@](O)(c1ccccc1)C1CCCCC1	inconclusive [inhibitor, partial curve]	
N[C@@H](CC(=O)O)C(=O)O		inconclusive: -31%
C[C@@]12CCC(=O)C=C1CC[C@@H]1[C@@H]2[C@H](O)C[C@]2(C)[C@@H]1CC[C@]2(O)C(=O)COC(=O)CCC(=O)O	active: 0.224 µM	
C#CCN1C(C)=C(C(=O)OC)[C@@H](c2cccc([N+](=O)[O-])c2)C(C(=O)OCC)=C1C	active: 3.55 µM	
COc1c2c(nc3ccccc13)O[C@@H]([C@@](C)(O)CO)C2	inactive	

SMILES	Potency	activity change, negative = inhibition
CCSC(N)=Nc1ccc(C(F)(F)F)cc1		inconclusive: 1.24%
CNC(=O)[C@@H]1O[C@@H](n2cnc3c(N)ncnc32)[C@@H](O)[C@H]1O		inconclusive: -10.9%
NC(=NCc1ccc(Cl)c(Cl)c1)NC(=O)c1nc(Cl)c(N)nc1N		inconclusive: 38.1%
C[C@H](NCCc1ccc(O)cc1)[C@@H](O)c1ccc(O)cc1	inactive	
CCN1CCC[C@@H]1CNC(=O)c1cc(S(N)(=O)=O)ccc1OC	inactive	
N[C@H](C(=O)N[C@@H]1C(=O)N2C(C(=O)O)=C(Cl)CS[C@@H]12)c1ccccc1	inactive	
C[C@@H](C[N+](C)(C)C)OC(N)=O	inactive	
Nc1nc(Cl)nc2c1ncn2[C@@H]1O[C@@H](COP(=O)(O)OP(=O)(O)OP(=O)(O)O)[C@@H](O)[C@H]1O	inactive	
C/C=C1\C(=O)C[C@@H]2[C@@H]3CCC4=CC(=O)CC[C@@]4(C)[C@H]3CC[C@@]12C	inactive	
O=c1cc(O)cc(/C=C\c2ccc(O)c(O)c2)o1	active: 1.26 µM	
Cn1cnc2c(NC3CCCC3)ncnc21	inconclusive [inhibitor, full curve, poor fit]	
C=C[C@H](N)CCC(=O)O	inconclusive [inhibitor, single point]	
NC[C@@H]1O[C@@H](O[C@H]2[C@@H](O)[C@H](O[C@@H]3[C@H](O)[C@H](N)C[C@H](N)[C@H]3O[C@@H]3O[C@@H](CO)[C@H](O)[C@H](O)[C@@H]3N)O[C@H]2CO)[C@H](N)[C@H](O)[C@@H]1O		inconclusive: -31.3%
Nc1ccc(CCNc2ncnc3c2ncn3[C@@H]2O[C@@H](CO)[C@H](O)[C@@H]2O)cc1		inconclusive: 8.78%
CCCCCCCCCCCCCCCCCCNC(=O)OC[C@@H](COP(=O)([O-])OCC[n+]1ccsc1)OC		inconclusive: -11.4%
CC1CCN(CC[C@@H]2CCCN2S(=O)(=O)c2cccc(O)c2)CC1		inconclusive: -9.03%
CC(C)C[C@H](NC(=O)[C@@H](O)[C@@H](N)Cc1ccccc1)C(=O)O	active: 1.58 µM	
N=C1Sc2ccccc2C2=NCCCN12	active: 2 µM	
Nc1ncnc2c1nc(Sc1ccc(Cl)cc1)n2[C@@H]1O[C@H]2COP(=O)(O)O[C@@H]2[C@H]1O		inconclusive: -32.1%
